From PubChem BioAssay AID624418 (National Center for Advancing Translational Sciences (NCATS), 2012)
Values joined by “and” are separate entries in the source; they are usually repeats but may differ in a detail not shown here. Equal values may be shown once. Among all 410,000 compounds or so, about 530 (0.13%) were called active. This list was built around the results that the source calls inconclusive (neither active nor inactive); the mix of calls is not that of the screen. The call rests on the fitted dose curve; in most records, active means well fitted inhibition curve with a large enough effect; inconclusive means small, poorly fitted or top-dose-only effect, or another doubt; inactive means no such curve, though single readings can be large or run the other way. A potency beside an inconclusive call is a rough fit, not a confirmed value.

experiment: qHTS of GLP-1 Receptor Inverse Agonists: Cytotox Screen; conditions: HEK293 cAMP-luciferase reporter cells, luminescence, 24 h; activity change, negative = inhibition: at 38.3 µM (top of the series)
Source text: The overall goal of this project was to develop a novel assay for discovering small molecule ligands for class B1 G protein-coupled receptors (GPCRs). Very few agonists (or inverse agonists) with generally weak activity for this entire group of physiologically important receptors are known to date. To establish proof-of-principle that this critical bottleneck can be overcome with a suitable screening approach, our studies focused on the class B1 receptor for glucagon-like peptide-1 (GLP-1R), a potential therapeutic target for diabetes and neurodegenerative disease.
The assay was developed using a cell-based functional readout. Toward this goal, stably transfected HEK293 cell clones were established that co-express (i) a cAMP-responsive luciferase reporter gene, and (ii) constitutively active GLP-1R that upon ligand interaction inhibit (inverse agonists) the luciferase activity. In addition, two control cell lines were developed: (i) one that express only the cAMP-responsive reporter gene to enable initial exclusion of GLP-1R independent effects of candidate probes; and (ii) one with the reported gene cloned with another constitutively active orphan receptor GPR119 to enable exclusion of GLP-1R independent inhibitor effects of candidate inverse agonists.
To that end, this assay was optimized for 1536-well format and screened against the MLSMR. Then the same collection was run in this cytotoxicity assay where inhibition was the undesired outcome.
NIH Molecular Libraries Probe Production Network [MLPCN]
NIH Chemical Genomics Center [NCGC]
PI Name: Martin Beinborn, Tufts Medical Center
Six ul of cell suspension (200 cells/uL in DMEM + 10% Nu serum + 1% pen-strep) is dispensed in a white solid 1536-well plate. The plates are incubated for 12 hours at 37 deg C at 5% CO2 followed by addition of 23 nL compounds. After 24 hr incubation at 37 deg C and 5% CO2, 3 uL of luciferase assay detection reagent is added. A luminescence read is obtained on the PerkinElmer Viewlux after 12 min incubation at room temperature.
On the % scale 0 is the no-effect control and ±100 the full control effect; potency means the concentration at half of the fitted maximal effect.

Compound	Potency	activity change, negative = inhibition
CCCCn1c(=N)n(CC(=O)C(C)(C)C)c2ccccc21	inconclusive: 20 µM [inhibitor, single point]	–
O=C(Nc1nc(-c2ccccn2)cs1)c1ccc(F)c(S(=O)(=O)N2CCOCC2)c1	–	inactive: -27.2%
Cc1ccc(N2C(=O)CC(Sc3ncn[nH]3)C2=O)cc1C (centres undefined)	–	inactive: -6.99%
CCCCCCCn1c(=N)n(CC(=O)c2ccco2)c2ccccc21	inconclusive: 12.6 µM [inhibitor, single point]	–
CCCCn1c(-c2nn(C)c(C)c2Cl)n[nH]c1=S	inconclusive: 15.8 µM [inhibitor, partial curve, poor fit]	–
Cc1ccccc1Cc1c(C)nc2c(-c3ccccc3)c(C)[nH]n2c1=O	inconclusive: 4.47 µM [inhibitor, partial curve, poor fit]	–
CCN(CC)CCNc1nc(-n2nc(C)cc2C)nc2sc3c(c12)CC(C)(C)OC3	inconclusive: 10 µM [inhibitor, single point]	–
CCOc1ccc(C2NC(=S)NC3=C2CCc2ccccc23)cc1 (centres undefined)	inconclusive: 28.2 µM [inhibitor, single point]	–
O=C(N/N=C\c1c(O)ccc2ccccc12)c1ccc(O)cc1	inconclusive: 10 µM [inhibitor, partial curve, poor fit]	–
Cc1c(NC(=O)CNCc2ccc3c(c2)OCO3)c(=O)n(-c2ccccc2)n1C	inconclusive: 31.6 µM [inhibitor, single point]	–
Cc1ccc2cc(CN(CCc3ccccc3)C(=S)NCCCN(C)C)c(=O)[nH]c2c1	inconclusive: 14.1 µM [inhibitor, single point]	–
COCCN1C=C2C(=O)C(C)(OC(=O)C3CCCC3)C(=O)C=C2C=C1c1ccsc1 (centres undefined)	inconclusive: 7.94 µM [inhibitor, partial curve, poor fit]	–
O=C(NCc1cccc(C(F)(F)F)c1)C1CC(c2ccccc2C(F)(F)F)=NO1 (centres undefined)	inconclusive: 3.98 µM [inhibitor, full curve, poor fit]	–
Cc1ccc(NC(=O)N2CCc3c(sc4c3CCCC4)C2c2ccccc2)cc1F (centres undefined)	–	inactive: 8.12%
CCCCN(C)C(=O)c1ccc2c(c1)N(Cc1cccc(Cl)c1)C(=O)c1ccccc1S2=O (centres undefined)	–	inactive: -7.72%
COc1cc(/C=N/Nc2ncc(C(F)(F)F)cc2Cl)cc(OC)c1OC	inconclusive: 28.2 µM [inhibitor, single point]	–
CN1C2C=C(N(CCc3c[nH]c4ccccc34)C(=O)c3ccc(Cl)cc3)CC1CC2 (centres undefined)	inconclusive: 11.2 µM [inhibitor, single point]	–
O=c1cc[nH]c2cccc(Cc3ccccc3)c12	inconclusive: 11.2 µM [inhibitor, single point]	–
COc1ccc(CCNC(=O)CNS(=O)(=O)c2ccc(Br)s2)cc1OC	inconclusive: 14.1 µM [inhibitor, partial curve, poor fit]	–
O=C(/C=C/c1ccc(OC(F)F)cc1)OCC(=O)N1CCN(C(=O)c2ccco2)CC1	–	inactive: -14.1%
COc1cc(/C=C2\C(=O)NN(c3ccccc3)C2=O)cc([N+](=O)[O-])c1O	inconclusive: 11.2 µM [inhibitor, partial curve]	–
COc1cc2cc(CCOC(=O)CCCC(=O)O)oc(=O)c2cc1OC	inconclusive: 28.2 µM [inhibitor, single point]	–

Compound	Potency	activity change, negative = inhibition
CC(NC(=O)COC(=O)c1cc([N+](=O)[O-])ccc1N1CCOCC1)c1ccccc1 (centres undefined)	inconclusive: 22.4 µM [inhibitor, single point]	–
CCN1CCN(CC(=O)Nc2cc(S(=O)(=O)N(CC)c3ccccc3)ccc2Cl)CC1	inconclusive: 28.2 µM [inhibitor, single point]	–
CCc1ccc(C2c3c(oc4ccc(C)cc4c3=O)C(=O)N2c2nc(C)c(C)s2)cc1 (centres undefined)	–	inactive: 0.314%
O=C(O)c1ccc(/C=N/Nc2ncc(C(F)(F)F)cc2Cl)cc1	–	inactive: -14.5%
CC(C)CNc1cc(N2CCCC2)ccc1[N+](=O)[O-]	inconclusive: 31.6 µM [inhibitor, single point]	–
CCc1ccc(NC(=S)N2CCCCCCC2)cc1	inconclusive: 11.2 µM [inhibitor, single point]	–
O=c1c2c3c(sc2nc2n1CCCCC2)CCC3	–	inactive: -3.03%
CC1(C(=O)Nc2ccc3c(c2)OCO3)Cc2c(-c3cccc(C(F)(F)F)c3)ccnc2O1 (centres undefined)	inconclusive: 11.2 µM [inhibitor, single point]	–
COC(=O)C1=C(C(=O)OC)C(C(=O)OC)C(C(=O)OC)C(C(=O)OC)(C(=O)OC)C(C(=O)OC)=C1C(=O)OC (centres undefined)	inconclusive: 28.2 µM [inhibitor, single point]	–
COc1ccc(N2CCN(C(=O)Nc3cccc(C(F)(F)F)c3)CC2)cc1	inactive	–
Cc1ccc(N=N/C(=C\O)C(=O)c2ccc(Cl)cc2)cc1	inconclusive: 14.1 µM [inhibitor, single point]	–
Cc1cc(NC(=O)c2sc(Nc3cccc(C(F)(F)F)c3)nc2N)no1	–	inactive: 7.89%
COc1ccc(CCC(=O)Nc2sccc2C#N)cc1	–	inactive: 19.1%
CCC/C=C/c1ccc(CN2C(CC(C)C)C(=O)N(Cc3cn(Cc4ccco4)nn3)CCS2(=O)=O)cc1 (centres undefined)	–	inactive: -26%
CC(C)(C)C1C/C(=C/c2ccccn2)C(=O)/C(=C/c2ccccn2)C1 (centres undefined)	inconclusive: 1.26 µM [inhibitor, partial curve, poor fit]	–
COc1ccc2nc(NC3=NCCC3)sc2c1	–	inactive: 7.35%
Cc1cc(/C=N/NC(N)=S)c(C)n1-c1ccc(Cl)c(Cl)c1	active: 3.16 µM	–
S=C1NC(c2cccs2)=CC(c2ccc(Br)cc2)N1 (centres undefined)	inconclusive: 11.2 µM [inhibitor, partial curve, poor fit]	–
CC1C(=O)C(C)C(c2cc(Br)ccc2O)NC1c1cc(Br)ccc1O (centres undefined)	inconclusive: 14.1 µM [inhibitor, partial curve, poor fit]	–
CCCC(=O)N1CCN(c2ccc(NC(=O)c3ccc([N+](=O)[O-])o3)cc2)CC1	inconclusive: 4.47 µM [inhibitor, full curve]	–
NC(N)=Nc1ccc(C=C2C=Cc3ccccc32)cc1	inconclusive: 14.1 µM [inhibitor, partial curve, poor fit]	–
CCN(CC(=O)Nc1c(F)cccc1F)C(=O)C1CCN(S(=O)(=O)c2ccc(C)c(C)c2)CC1	–	inactive: -11.4%

Compound	Potency	activity change, negative = inhibition
C=CCNC(=O)C(=O)Nc1ccc2c(c1)N(S(=O)(=O)c1cccs1)CCC2	inconclusive: 28.2 µM [inhibitor, single point]	–
CC(C)N=C(NS(=O)(=O)c1ccccc1)C(Cl)(Cl)Cl	inconclusive: 10 µM [inhibitor, partial curve]	–
COC(=O)c1ccc(OC)c(-c2c(OC)cc(OC)cc2OC)c1	–	inactive: 9.45%
NS(=O)(=O)c1cccc(NC(=O)COC(=O)CN2C(=O)c3ccccc3C2=O)c1	–	inactive: -2.34%
CCOC(=O)/C(=C\c1ccc(OC)c(OC)c1)C(=O)c1cccnc1	inconclusive: 2 µM [inhibitor, partial curve, poor fit]	–
COc1cc(OC)c(C=NNC(=S)NC23CC4CC(CC(C4)C2)C3)c(OC)c1	inconclusive: 3.55 µM [inhibitor, full curve, poor fit]	–
Cc1ccc(C)c(C(C)NC(=O)C2CC=CCC2C(=O)O)c1 (centres undefined)	–	inactive: 1.82%
CC1=NC(=O)C(N=Nc2ccccc2C(=O)O)N1c1ccccc1 (centres undefined)	inconclusive: 7.08 µM [inhibitor, partial curve, poor fit]	–
OC(COc1ccc(Br)cc1)CN1CCC(Cc2ccccc2)CC1 (centres undefined)	inconclusive: 11.2 µM [inhibitor, single point]	–
CC1(C)COCN1S(=O)(=O)c1ccc(C(=O)Nc2nnc(-c3ccc(Cl)s3)o2)cc1	inconclusive: 3.55 µM [inhibitor, partial curve, poor fit]	–
Cn1c(=O)cc(SCC(=O)NCc2ccc(F)cc2)c2ccccc21	inconclusive: 10 µM [inhibitor, partial curve, poor fit]	–
CCN1/C(=C\c2ccc3cc(C)ccc3[n+]2CC)Sc2cc(C)c(C)cc21	inconclusive: 11.2 µM [inhibitor, partial curve, poor fit]	–
Cc1cccc(CS(=O)(=O)c2ncc(Cl)c(C(=O)NCc3ccccc3)n2)c1	inconclusive: 11.2 µM [inhibitor, single point] and inconclusive: 11.2 µM [inhibitor, partial curve, poor fit]	–
COC(=O)CNC(=O)Cc1c(C)n(C(=O)c2ccc(Cl)cc2)c2ccc(OC)cc12	–	inactive: -6.66%
CC(C)Oc1ccc(C(=O)Nc2ccc(Cl)c(S(=O)(=O)Nc3ccc(Cl)cc3)c2)cc1	inconclusive: 11.2 µM [inhibitor, single point]	–
COc1cccc(C(=O)N2CCCc3ccccc32)c1	inconclusive: 5.62 µM [inhibitor, partial curve, poor fit]	–
C[C@@H](c1ccccc1)N1C[C@H](COCc2ccccc2)Oc2cc(N3CC[C@@H](N(C)C)C3)ccc2S1(=O)=O	inconclusive: 28.2 µM [inhibitor, single point]	–
CC1CCC(C(C)C)C(OC(=O)Cn2c(-c3ccc(F)cc3)[n+](C)c3ccccc32)C1 (centres undefined)	inconclusive: 11.2 µM [inhibitor, single point]	–
Cc1ccccc1NC(C)C(=O)N/N=C/c1c[nH]c2ccccc12 (centres undefined)	inconclusive: 28.2 µM [inhibitor, single point]	–
Cc1ccc(NC(=O)c2cc(S(=O)(=O)NCCC3=CCCCC3)ccc2F)cc1	inconclusive: 10 µM [inhibitor, single point]	–
